The other results are listed elsewhere or left out. At the low end of the ranking, values are background and their order means little.
The sequences below were run on T1, GST-NbGlk1(82-244) (assay: protein-binding microarray). Settings: NbGlk1 is a Golden2-like transcription factor of Nicotiana benthamiana; high values mean tight binding; most listed sequences are background and not binding sites; double strand, one strand shown.
T1 sequence: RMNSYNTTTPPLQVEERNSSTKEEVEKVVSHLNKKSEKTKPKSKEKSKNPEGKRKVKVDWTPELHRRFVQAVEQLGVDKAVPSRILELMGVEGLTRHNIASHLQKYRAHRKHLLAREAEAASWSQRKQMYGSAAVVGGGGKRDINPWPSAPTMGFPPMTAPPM
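Further: rank-based score ranging −0.5 to +0.5 with E above 0.45 taken as significant binding.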

Sequence	binding signal
ATTAGTGG	0.167 E-score
AAGACTGA	0.0352 E-score
AGGCCCCG	-0.317 E-score
AGTGCCCC	-0.229 E-score
AAAGGTTA	-0.078 E-score
AAGCGCAA	0.0458 E-score
AGACTTAC	-0.103 E-score
AGAGGTGC	-0.264 E-score
ACCGTTAT	0.041 E-score
AACATGAG	0.106 E-score
CAACGGTG	-0.205 E-score
ACTCGGAC	-0.292 E-score
AGATCGAG	0.103 E-score
ATGACACC	-0.149 E-score
ATGGTACG	0.066 E-score
ACGGTATC	0.297 E-score
AATTAATT	0.142 E-score
ACCTACGG	-0.0715 E-score
ATTTTTAC	0.313 E-score
ACGACACG	-0.216 E-score
AACCTAGT	-0.0506 E-score
AGACCGCG	-0.21 E-score

Sequence	binding signal
ACTTACCC	-0.159 E-score
AACGCCAT	0.0511 E-score
AATGCGTG	-0.102 E-score
CAATAGGA	0.0155 E-score
CACCCCTA	-0.163 E-score
AACTTAAG	-0.0538 E-score
AAGCGGCA	-0.196 E-score
AGTCTTAT	-0.00956 E-score
ATATTACC	0.137 E-score
ACCTTTCG	-0.136 E-score
ATCACCAC	0.113 E-score
AGGCGGCC	-0.198 E-score
AGCGCGTC	-0.159 E-score
ATTACAGC	0.177 E-score
AGACCACA	-0.0589 E-score
ACAATCGG	0.123 E-score
ACATACCC	-0.166 E-score
ATTACATC	0.229 E-score
ATTTAGCC	-0.0907 E-score
AAGCACAC	-0.129 E-score
AGAGGACG	-0.225 E-score
ATTCAAAT	0.21 E-score

Sequence	binding signal
ATGATCGA	0.062 E-score
AAAGTGGG	-0.138 E-score
CACAACCG	-0.093 E-score
CAAAAGCA	-0.0146 E-score
AGTTATAT	0.116 E-score
ATGGGCAC	-0.167 E-score
ATGGATGA	-0.0309 E-score
ATAGTCTA	0.0222 E-score
AACGGGGT	-0.196 E-score
ATGCCTCG	-0.126 E-score
ACAATGAA	-0.0372 E-score
ACAATTCG	0.0797 E-score
AGCGTGTG	-0.0212 E-score
AATAAACT	0.0164 E-score
ACGCGCCC	-0.177 E-score
ACTTTCCT	-0.189 E-score
ATCGGATG	0.0808 E-score
ATACTGTC	0.138 E-score
ATCCCACC	0.155 E-score
CACGACTC	-0.0472 E-score
ACCGCGAA	-0.0226 E-score
ATTCATAC	0.084 E-score

Sequence	binding signal
AGAGGTCC	-0.299 E-score
AAGTGGCG	-0.183 E-score
AAAAAGCT	-0.0684 E-score
CAATCAGA	0.206 E-score
ACGTAATG	0.00594 E-score
AGGACGGC	-0.288 E-score
CAGATAGA	0.0454 E-score
AAACGGAG	-0.0752 E-score
AGCCCGAG	-0.142 E-score
AGTACTAC	-0.0238 E-score
ACTGGCAG	-0.236 E-score
ATACTATA	0.133 E-score
AAAAGGAG	-0.0555 E-score
AGCAAGAC	-0.0412 E-score
AACCTTGG	-0.21 E-score
ATCGTTAC	0.0361 E-score
ATTGTTGC	0.136 E-score
ATATGCCC	0.129 E-score
ATGATCAC	0.00851 E-score
ACACTGTC	-0.0464 E-score

Source: publication PMC5836133
